Source: the supplement of paper PMC4604168 (melanoma cell lines)
The list shows a part of the results. Repeats are few or missing, and single values can be far off.

Legend:
Assay in all cases: cell count relative to DMSO control; melanoma cells; higher = more viable cells
Details in all cases: library dose: low library concentration; 72 h; first compound 0.4 µM
MZ2-MEL = test system: MZ2-MEL
MeWo = test system: MeWo
RPMI7951 = test system: RPMI7951
RVH-421 = test system: RVH-421
SkMel28 = test system: SkMel28
SkMel2 = test system: SkMel2
SkMel30 = test system: SkMel30
UACC62 = test system: UACC62
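Also: cell number obtained by counting DAPI-stained nuclei in high-throughput microscope images with image analysis software, screen run in 1,536-well plates.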

Compound	cell count (MZ2-MEL)	cell count (MeWo)	cell count (RPMI7951)	cell count (RVH-421)	cell count (SkMel28)	cell count (SkMel2)	cell count (SkMel30)	cell count (UACC62)
C[C@@H](N)c1ccc(C(=O)Nc2ccnc3[nH]ccc23)cc1 + COc1ccc(C2=N[C@@H](c3ccc(Cl)cc3)[C@@H](c3ccc(Cl)cc3)N2C(=O)N2CCNC(=O)C2)c(OC(C)C)c1 [Nutlin-3] (partner dose 0.1 µM)	84.1%	80.9%	96%	91.5%	71.2%	106%	127%	81.5%
CCCCCCCCCCCCCCCCCCOP(=O)([O-])OC1CC[N+](C)(C)CC1 [Perifosine] + CS(=O)(=O)CCNCc1ccc(-c2ccc3ncnc(Nc4ccc(OCc5cccc(F)c5)c(Cl)c4)c3c2)o1 [lapatinib] (partner dose 0.8 µM)	97.5%	96.5%	90.6%	102%	101%	104%	90.1%	111%
CCCCCCCCCCCCCCCCCCOP(=O)([O-])OC1CC[N+](C)(C)CC1 [Perifosine] + Cn1c(Nc2ccc(C(F)(F)F)cc2)nc2cc(Oc3ccnc(-c4ncc(C(F)(F)F)[nH]4)c3)ccc21 [CHIR265] (partner dose 0.08 µM)	89.9%	69.1%	46.8%	66.9%	65.2%	70.7%	66.7%	55.2%
Cn1sc(=O)n(Cc2ccccc2)c1=O + COCC[n+]1c2c(n(Cc3cnccn3)c1C)C(=O)c1ccccc1C2=O [YM155] (partner dose 0.0004 µM)	78.2%	97%	97.6%	99.9%	97.6%	96.2%	97.8%	105%
C[C@@H](N)c1ccc(C(=O)Nc2ccnc3[nH]ccc23)cc1 + C#Cc1cccc(Nc2ncnc3cc(OCCOC)c(OCCOC)cc23)c1 [erlotinib] (partner dose 0.8 µM)	69.7%	79.8%	70.3%	81.9%	75.3%	114%	102%	84.8%
CCCCCCCCCCCCCCCCCCOP(=O)([O-])OC1CC[N+](C)(C)CC1 [Perifosine] + C[C@]1(c2nc3c(C(N)=O)cccc3[nH]2)CCCN1 [Veliparib] (partner dose 1.4 µM)	98.9%	90.3%	46.3%	81.8%	101%	101%	81.3%	32.1%
C[C@@H](N)c1ccc(C(=O)Nc2ccnc3[nH]ccc23)cc1 + COc1ccc(Cl)c(Nc2nc3ccccc3nc2NS(=O)(=O)c2cccc(NC(=O)C(C)(C)N)c2)c1 [XL147] (partner dose 0.8 µM)	60.9%	78.6%	73.4%	56.4%	82.5%	98.9%	83.7%	91.3%
CCCCCCCCCCCCCCCCCCOP(=O)([O-])OC1CC[N+](C)(C)CC1 [Perifosine] + C[C@@H](Oc1cc(-c2cnn(C3CCNCC3)c2)cnc1N)c1c(Cl)ccc(F)c1Cl [Crizotinib] (partner dose 0.2 µM)	106%	101%	92.2%	92.9%	120%	83.8%	115%	106%
C[C@@H](N)c1ccc(C(=O)Nc2ccnc3[nH]ccc23)cc1 + CC(=O)c1c(C)c2cnc(Nc3ccc(N4CCNCC4)cn3)nc2n(C2CCCC2)c1=O [palbociclib] (partner dose 0.04 µM)	75%	62%	59.1%	70.8%	58.3%	91.1%	77.4%	72.7%
CCCCCCCCCCCCCCCCCCOP(=O)([O-])OC1CC[N+](C)(C)CC1 [Perifosine] + Cc1cn(-c2cc(NC(=O)c3ccc(C)c(Nc4nccc(-c5cccnc5)n4)c3)cc(C(F)(F)F)c2)cn1 [nilotinib] (partner dose 0.2 µM)	95.4%	98.6%	95.8%	100%	105%	91.2%	88.8%	118%
Cn1sc(=O)n(Cc2ccccc2)c1=O + CS(=O)(=O)CCNCc1ccc(-c2ccc3ncnc(Nc4ccc(OCc5cccc(F)c5)c(Cl)c4)c3c2)o1 [lapatinib] (partner dose 0.8 µM)	92.5%	90.8%	87.7%	78.4%	98.6%	99.6%	92.1%	93.5%
C[C@@H](N)c1ccc(C(=O)Nc2ccnc3[nH]ccc23)cc1 + Nc1nc(F)nc2c1ncn2[C@@H]1O[C@H](CO)[C@@H](O)[C@@H]1O [fludarabine] (partner dose 0.2 µM)	84.3%	28.1%	70.3%	67.6%	48.6%	5.19%	21.5%	62.7%
CCCCCCCCCCCCCCCCCCOP(=O)([O-])OC1CC[N+](C)(C)CC1 [Perifosine] + O=C(O)c1ccc2c(c1)nc(Nc1cccc(Cl)c1)c1ccncc12 [CX4945] (partner dose 0.4 µM)	92.6%	101%	77%	91.9%	105%	101%	77.7%	90.7%
CCCCCCCCCCCCCCCCCCOP(=O)([O-])OC1CC[N+](C)(C)CC1 [Perifosine] + CC1(C)CCC(c2ccc(Cl)cc2)=C(CN2CCN(c3ccc(C(=O)NS(=O)(=O)c4ccc(N[C@H](CCN5CCOCC5)CSc5ccccc5)c(S(=O)(=O)C(F)(F)F)c4)cc3)CC2)C1 [ABT263] (partner dose 0.4 µM)	95%	66.4%	19.1%	66.7%	94.3%	78.5%	43.3%	110%
Cn1sc(=O)n(Cc2ccccc2)c1=O + Nc1nc(F)nc2c1ncn2[C@@H]1O[C@H](CO)[C@@H](O)[C@@H]1O [fludarabine] (partner dose 0.2 µM)	105%	35.1%	85.4%	102%	74.9%	9.6%	24.4%	79.6%
CCCCCCCCCCCCCCCCCCOP(=O)([O-])OC1CC[N+](C)(C)CC1 [Perifosine] + NC(=O)c1ccc(N(C(N)=O)c2c(F)cccc2F)nc1-c1ccc(F)cc1F [VX702] (partner dose 0.4 µM)	98.4%	89.9%	75.3%	114%	125%	99.8%	98.2%	95.7%
Cn1sc(=O)n(Cc2ccccc2)c1=O + Nc1cccc2c1CN(C1CCC(=O)NC1=O)C2=O [lenalidomide] (partner dose 1 µM)	106%	100%	89%	103%	112%	100%	95.7%	91.1%
CCCCCCCCCCCCCCCCCCOP(=O)([O-])OC1CC[N+](C)(C)CC1 [Perifosine] + Nc1ncn([C@H]2C[C@H](O)[C@@H](CO)O2)c(=O)n1 [decitabine] (partner dose 0.1 µM)	88.8%	99%	73.8%	99.5%	108%	95.8%	103%	72.7%
C[C@@H](N)c1ccc(C(=O)Nc2ccnc3[nH]ccc23)cc1 + Nc1ncn([C@H]2C[C@H](O)[C@@H](CO)O2)c(=O)n1 [decitabine] (partner dose 0.1 µM)	63.9%	88.7%	66.6%	44%	57.8%	100%	120%	62.3%
Cn1sc(=O)n(Cc2ccccc2)c1=O + CC(=O)O[C@@]12CO[C@@H]1C[C@H](O)[C@@]1(C)C(=O)[C@H](O)C3=C(C)[C@@H](OC(=O)[C@H](O)[C@@H](NC(=O)OC(C)(C)C)c4ccccc4)C[C@@](O)([C@@H](OC(=O)c4ccccc4)[C@H]21)C3(C)C [Docetaxel] (partner dose 0.0001 µM)	57.2%	56.1%	50%	80.5%	58.6%	43%	36.2%	45.1%
C[C@@H](N)c1ccc(C(=O)Nc2ccnc3[nH]ccc23)cc1 + CO[C@H]1C[C@@H]2CC[C@@H](C)[C@@](O)(O2)C(=O)C(=O)N2CCCC[C@H]2C(=O)O[C@H]([C@H](C)C[C@@H]2CC[C@@H](OCCO)[C@H](OC)C2)CC(=O)[C@H](C)/C=C(\C)[C@@H](O)[C@@H](OC)C(=O)[C@H](C)C[C@H](C)/C=C/C=C/C=C/1C [everolimus] (partner dose 0.02 µM)	63.9%	59.9%	49.6%	47.5%	35.6%	–	87.5%	60.5%
C[C@@H](N)c1ccc(C(=O)Nc2ccnc3[nH]ccc23)cc1 + OCc1c[nH]c2ccccc12 [Indole-3-carbinol] (partner dose 0.8 µM)	71.2%	85.3%	70%	58.7%	77.7%	94.7%	116%	83.3%
CCCCCCCCCCCCCCCCCCOP(=O)([O-])OC1CC[N+](C)(C)CC1 [Perifosine] + CCCS(=O)(=O)Nc1ccc(F)c(C(=O)c2c[nH]c3ncc(Cl)cc23)c1F [PLX4720] (partner dose 0.08 µM)	98.9%	118%	103%	99%	92.9%	114%	104%	80.9%
CCCCCCCCCCCCCCCCCCOP(=O)([O-])OC1CC[N+](C)(C)CC1 [Perifosine] + Cn1cnc2c(F)c(Nc3ccc(Br)cc3Cl)c(C(=O)NOCCO)cc21 [selumetinib] (partner dose 0.015 µM)	117%	105%	65.9%	103%	92.1%	86.3%	86.7%	94.2%
CCCCCCCCCCCCCCCCCCOP(=O)([O-])OC1CC[N+](C)(C)CC1 [Perifosine] + Cn1c(=O)n(-c2ccc(C(C)(C)C#N)cc2)c2c3cc(-c4cnc5ccccc5c4)ccc3ncc21 [NVP-BEZ235] (partner dose 0.004 µM)	–	94.9%	96.5%	84.5%	86%	92.2%	99.8%	94.6%
Cn1sc(=O)n(Cc2ccccc2)c1=O + NC1(c2ccc(-c3nc4ccn5c(=O)[nH]nc5c4cc3-c3ccccc3)cc2)CCC1 [MK2206] (partner dose 0.4 µM)	104%	85.8%	80.8%	98.9%	98.2%	87.1%	73.5%	93.8%
